Here are results for three molecules from US20220289848A1 (published 2022).

To fix the notation:
B1: sdAb-PDL1c-IgG4PE (Fc fusion)
chain: EVQLVESGGGLVQPGGSLRLSCAASGRTFITYAIGWFRQAPGKGREFVSAISWSGSMTSYADSVKGRFTISRDNAKNTLYLQMNSLRPEDTAVYYCAAHRGAIAPIAQSVYTNWGQGTLVTVSS[omitted - human IgG4 Fc with changes]
B2: sdAb-PDL1b-IgG4PE (Fc fusion)
chain: EVQLVESGGGLVQPGGSLRLSCAASGRTFVTYGMGWFRQAPGKGREFVSAISWSGSSTSYGDSVKGRFTISRDNAKNTLYLQMNSLRPEDTAVYYCAAALGAVVYTTREPYTYWGQGTLVTVSS[omitted - human IgG4 Fc with changes]
B3: sdAb-PDL1a-IgG4PE (Fc fusion)
chain: EVQLVESGGGLVQPGGSLRLSCAASGRTFVTYGMGWFRQAPGKGREFVSAISWSGSMTSYGDSVKGRFTISRDNAKNTLYLQMNSLRPEDTAVYYCAAALGAVVYTTREPYTYWGQGTLVTVSS[omitted - human IgG4 Fc with changes]

One test concerns the target PD-L1 expressed on CHO-K1 cells (UniProt Q9NZQ7). Kind of test: FACS binding, CHO-K1 cells expressing PD-L1. In general terms: A flow cytometer gives signals particle by particle.
UniProt Q9NZQ7, sequence (Q9NZQ7 19-290): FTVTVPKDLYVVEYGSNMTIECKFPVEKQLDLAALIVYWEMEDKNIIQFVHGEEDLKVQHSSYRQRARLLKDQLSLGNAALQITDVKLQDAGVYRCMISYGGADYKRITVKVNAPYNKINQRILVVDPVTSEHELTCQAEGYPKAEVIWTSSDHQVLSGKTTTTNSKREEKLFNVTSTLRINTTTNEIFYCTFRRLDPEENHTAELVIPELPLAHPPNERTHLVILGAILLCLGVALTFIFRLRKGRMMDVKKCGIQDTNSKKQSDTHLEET
The molecule B1 came in with an EC50 of 1.82 nM.
B2 returned an EC50 of 2.22 nM.
Same read-out and setting: the same measure for B3: 2.58 nM.

The next test deals with CD47 expressed on CHO-K1 cells (UniProt Q08722). Nature of the test: FACS binding, CHO-K1 cells expressing CD47; flat curve.
Molecule B1 showed an EC50 of about 9.57 nM.
With B2, the EC50 was about 498 nM.
On the same count and under the same terms, the same measure for B3: about 9.77 nM.

What is called EC50 is the midpoint of the concentration-response curve. A high value points to a need for much substance.
